Assay results reported in PubChem BioAssay AID1671188 (National Center for Advancing Translational Sciences (NCATS), 2021).
The whole screen tested about 100,000 compounds, of which about 250 (0.25%) were called active. The inconclusive results got no clear call from the source; some entries with a clear call stand among them for comparison. The call rests on the fitted dose curve; in most records, active means well fitted inhibition curve with a large enough effect; inconclusive means small, poorly fitted or top-dose-only effect; inactive means flat fitted curve, though single readings scatter. No potency is given beside an inconclusive call; the fits are too rough.

target: Alanine aminotransferase 2 (Homo sapiens) (UniProt Q8TD30); assay: Primary qHTS assay for inhibitors of Glutamate pyruvate transaminase 2 (GPT2); conditions: Recombinant GPT2, coupled pyruvate oxidase/HRP Amplex Red fluorescence; series mostly up to 57.7 µM; further: nearly all actives have a fitted effect of over 60% in size
In short: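 Fluorescence of coupled pyruvate oxidase/HRP/Amplex Red system (50uM Amplex, 30 min, dark) reports pyruvate formed by GPT2. Enzyme reaction: 10ng/uL GPT2, 2mM L-alanine, 250uM a-KG, 30 min room temperature, pH 7.5; 50uM AOA control.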
Potency means the concentration at half of the fitted maximal effect; tags describe the fitted curve by direction and shape.

Chain of UniProt Q8TD30 (Q8TD30 whole entry, looked up): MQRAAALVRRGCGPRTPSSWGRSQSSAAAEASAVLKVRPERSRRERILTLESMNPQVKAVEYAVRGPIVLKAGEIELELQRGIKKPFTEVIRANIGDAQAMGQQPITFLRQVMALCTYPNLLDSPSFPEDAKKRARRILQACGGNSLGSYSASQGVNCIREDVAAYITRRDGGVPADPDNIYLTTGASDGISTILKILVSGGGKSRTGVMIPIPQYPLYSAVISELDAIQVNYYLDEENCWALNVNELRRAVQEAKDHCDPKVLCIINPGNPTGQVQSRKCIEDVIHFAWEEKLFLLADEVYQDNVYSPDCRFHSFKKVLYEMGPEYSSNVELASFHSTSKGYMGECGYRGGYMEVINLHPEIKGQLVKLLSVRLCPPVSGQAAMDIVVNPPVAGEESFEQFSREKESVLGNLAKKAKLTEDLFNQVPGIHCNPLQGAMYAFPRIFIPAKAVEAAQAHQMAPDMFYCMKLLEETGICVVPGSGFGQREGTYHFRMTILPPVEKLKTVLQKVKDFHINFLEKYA

Compound	Potency
COc1ccccc1C(O)c1nc(Nc2cccc(F)c2)n[nH]1 (stereo not drawn)	inconclusive [inhibitor, partial curve, poor fit]
CCN(CC)C(=O)C[C@@H]1c2nc(NC(=O)C3CCC3)sc2C[C@@H]2[C@](C)(CO)[C@H](O)CC[C@]21C	inconclusive [inhibitor, single point]
COc1ccccc1C(=O)Nc1cc(-c2cccnc2)nn1-c1ccccc1	inactive
CCCC1(CO)CCCN(Cc2cnn(-c3cccc(F)c3)c2)C1 (stereo not drawn)	inconclusive [inhibitor, single point]
COc1ccccc1C(=O)N1CCC(Oc2ccccc2)C1 (stereo not drawn)	inconclusive [inhibitor, single point]
COc1ccc(C(C)NC(=O)c2noc(-c3ccc[nH]c3=O)n2)cc1OC (stereo not drawn)	inconclusive [inhibitor, single point]
O=C(NCc1ccco1)Nc1cccc(-c2ccc(N3CCCC3)nn2)c1	inconclusive [inhibitor, single point]
COc1ccc(NC(=O)N2CCc3c(nc4cc(-c5ccccc5)[nH]n4c3=O)C2)c(OC)c1	inconclusive [inhibitor, partial curve, poor fit]
COCCOc1cc(C)c2c(c1C)C[C@H](C(C)C(=O)N1CCC(O)CC1)CC2 (stereo partly drawn)	inconclusive [inhibitor, partial curve, poor fit]
CC1=C[C@@H](CNC(=O)C2CC2)[C@H](C(C)C)C[C@H]1CC(=O)Nc1ccccn1	inactive
CCCn1ncc(N2CCC(C(=O)N(CCCOC)Cc3ccc4c(c3)CCCN4CC)CC2)cc1=O	active: 10 µM
O=C(Nc1ccc(Cl)cc1)N1CCC2(CC1)C(=O)NCN2Cc1ccc(Cl)cc1	inconclusive [inhibitor, single point]
Cc1ccc(N(C)C2CN(C(=O)OC(C)(C)C)C2)cc1	inactive
Fc1ccc(-c2nnc3ccc(Nc4ccc(N5CCOCC5)cc4)nn23)nc1	inconclusive [inhibitor, partial curve]
COc1ccc(F)cc1Nc1cnc2ccc(N(C)C)nn12	inconclusive [inhibitor, partial curve, poor fit]
COc1ccc(OC)c(NC(=O)C2CCN(C(=O)N3CC4CC(C3)[C@H]3CCCC(=O)N3C4)CC2)c1 (stereo partly drawn)	inconclusive [inhibitor, partial curve, poor fit]
C[C@H](C(=O)N1CCOCC1)C1CC[C@@]2(C)Cc3sc(CS(=O)(=O)C(C)(C)C)nc3[C@@H](C)[C@@H]2[C@H]1O (stereo partly drawn)	inconclusive [inhibitor, single point]
C=CCn1cc2c3c(cccc31)[C@H](CC(C)C)N[C@H](C(=O)NCCC)C2	inactive
O=C(Nc1ccc(Cl)cc1)N1CCC(Oc2ncccc2C(=O)N2CCOCC2)C1 (stereo not drawn)	inactive
COc1cccc(NC(=O)N2CCC(Cn3cc(C4CCCC4)nn3)CC2)c1	inconclusive [inhibitor, single point]
O=C(O)c1cn(C2CC2)c2cc(Cl)c(F)cc2c1=O	inactive
COc1cc2ncnc(Nc3ccc(O)cc3)c2cc1OC	inconclusive [inhibitor, single point]

Compound	Potency
CC(=O)NCc1nnc2n1C(C(=O)NCCc1ccccc1)CC2 (stereo not drawn)	inconclusive [inhibitor, single point]
CCOc1ccc(CC(=O)NC2CCN(c3cc(-c4cccs4)[nH]n3)C2)cc1 (stereo not drawn)	inconclusive [inhibitor, partial curve]
NC[C@@H]1O[C@H](c2ccccc2)Cc2c1ccc(O)c2O	active: 20 µM
c1nc(NC2CCCCCC2)c2cc(CNC[C@H]3CCCO3)sc2n1	inactive
CCOc1ccccc1C(=O)N1CCCN(c2cc(-c3ccc(F)cc3)[nH]n2)CC1	inconclusive [inhibitor, partial curve, poor fit]
Cc1ccccc1N1Cc2c(NCc3cccs3)ncnc2N(C)CC1=O	inconclusive [inhibitor, single point]
COc1ccc(CC(=O)N2CCC(Oc3ccc(C(=O)N(C)C)cn3)CC2)cc1Cl	inactive
Cc1ccc(C(=O)Nc2ccc3c(N4CCOCC4)ncnc3c2)cc1	inactive
Cc1ccc(-c2c(-c3nn(C)c4ncnc(N5CCC(N6CCCCC6)C5)c34)cnn2C)cc1 (stereo not drawn)	inconclusive [inhibitor, single point]
CNC(=O)[C@H](Cc1ccccc1)NC(=O)[C@H](CC(C)C)[C@H](CSc1cccs1)C(=O)NO	inconclusive [inhibitor, full curve, poor fit]
COc1cccc(CN2Cc3nc(-c4ccc(F)cc4)ccc3OCC2=O)c1	inactive
COC(=O)c1ccc(OC)cc1O[C@@H]1O[C@H](CO[C@@H]2OC[C@@H](O)[C@H](O)[C@H]2O)[C@@H](O)[C@H](O)[C@H]1O	inconclusive [inhibitor, single point]
O=C(NCC1CC1)c1ccc2c(c1)OCCN(c1ccccc1)C2	inactive
COc1ccc(CN2CC[C@@H](CO)N(C)c3nc(C)ccc3C2)cc1	inactive
CC(C)(C)c1ccc(-c2cc(C[C@H]3CNCC[C@H]3CC(=O)NCc3cccs3)no2)cc1	inconclusive [inhibitor, full curve, poor fit]
O=C(Nc1ccc(Cl)cc1)N1CCCC(C(=O)N2CCC(N3Cc4cccn4C3=O)CC2)C1 (stereo not drawn)	inactive
O=C(Nc1ccc(I)cc1)c1cc(-c2ccc[nH]2)n[nH]1	inactive
COc1ccc(-c2cc(N3CCCN(C(=O)Cc4c(F)cccc4Cl)CC3)n[nH]2)cc1	inconclusive [inhibitor, partial curve]
O=C(C[C@H]1NC(=O)c2ccccc2NC1=O)Nc1nc(-c2cccnc2)cs1	inactive
CN(C(=O)[C@@H]1C[C@@H](c2ccc(F)cc2)N(CCOc2ccccc2)C1)c1cccnc1	inactive
CC(=O)N1CCC(c2ncc(C)n2Cc2ccccc2)C1 (stereo not drawn)	inconclusive [inhibitor, full curve, poor fit]
